Assay results as given in publication PMC4336329 (PLoS ONE, 2015).
Among all 310,000 compounds or so, about 14,000 (4.5%) showed an effect of 50% or more. The effect is printed as a negative number. Some of the results follow.

These molecules were tested against human ether-à-go-go-related gene (hERG) potassium channel (human, UniProt Q12809) (assay: primary screen, population patch clamp on CHO cells stably expressing hERG).
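Note: peak tail current of the secondary pulse compared with the same well before compound.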

Sequence of human ether-à-go-go-related gene (hERG) potassium channel (Q12809 whole entry, looked up): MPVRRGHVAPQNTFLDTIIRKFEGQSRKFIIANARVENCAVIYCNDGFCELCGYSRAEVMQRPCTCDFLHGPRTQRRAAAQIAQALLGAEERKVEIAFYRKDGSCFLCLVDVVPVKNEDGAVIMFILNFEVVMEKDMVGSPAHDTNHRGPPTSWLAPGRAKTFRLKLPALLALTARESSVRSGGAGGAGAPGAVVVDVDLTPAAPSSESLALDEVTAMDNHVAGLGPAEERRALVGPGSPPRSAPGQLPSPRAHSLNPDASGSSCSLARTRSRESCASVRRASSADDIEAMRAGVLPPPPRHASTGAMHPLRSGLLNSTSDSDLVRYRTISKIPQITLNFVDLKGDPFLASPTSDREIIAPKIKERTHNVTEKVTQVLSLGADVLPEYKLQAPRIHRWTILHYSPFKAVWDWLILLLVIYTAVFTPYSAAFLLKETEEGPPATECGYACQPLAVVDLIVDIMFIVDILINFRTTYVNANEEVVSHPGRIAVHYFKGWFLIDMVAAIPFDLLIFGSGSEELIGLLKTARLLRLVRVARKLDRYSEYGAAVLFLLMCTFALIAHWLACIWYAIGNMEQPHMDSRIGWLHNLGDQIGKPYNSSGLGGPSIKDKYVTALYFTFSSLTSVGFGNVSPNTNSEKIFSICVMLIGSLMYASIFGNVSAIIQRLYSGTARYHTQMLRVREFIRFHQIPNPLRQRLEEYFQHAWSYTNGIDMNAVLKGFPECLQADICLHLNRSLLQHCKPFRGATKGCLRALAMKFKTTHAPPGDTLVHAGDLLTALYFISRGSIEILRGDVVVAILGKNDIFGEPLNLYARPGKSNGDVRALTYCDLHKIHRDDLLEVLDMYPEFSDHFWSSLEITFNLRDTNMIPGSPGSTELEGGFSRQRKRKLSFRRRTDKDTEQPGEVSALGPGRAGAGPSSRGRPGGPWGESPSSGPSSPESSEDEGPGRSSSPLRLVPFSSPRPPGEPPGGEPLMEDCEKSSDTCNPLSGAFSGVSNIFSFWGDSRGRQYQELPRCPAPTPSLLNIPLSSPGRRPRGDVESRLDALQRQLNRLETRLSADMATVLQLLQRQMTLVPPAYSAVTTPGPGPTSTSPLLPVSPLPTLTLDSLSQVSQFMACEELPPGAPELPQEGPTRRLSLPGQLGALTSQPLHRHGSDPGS

SMILES | hERG current change (%, negative = inhibition) at 10uM [%]
COc1cccc(/C=N\NC(=O)C2C(=O)NCC2c2ccccc2)c1O (stereo not shown) | -9.31
O=C(N=C1SC2CS(=O)(=O)CC2N1c1ccc(Cl)c(Cl)c1)C1CCCO1 (stereo not shown) | 8.35
COc1ccc(C(=O)Sc2ccc(Cl)cc2)cc1OC | -7.35
O=C(O)c1cccc2c(-c3ccccc3)c(-c3ccccc3)[nH]c12 | 18.5
CCOCCn1c(=O)c2c(nc3n2CC(C)CN3CCc2ccccc2)n(C)c1=O (stereo not shown) | -71.5
O=C(OCc1nnc(-c2ccccc2)o1)c1ccc2c(c1)C(=O)N(CCc1ccccc1)C2=O | 26.7
CC1(C)CC(=O)/C(=C(\O)CCCN2C(=O)c3ccccc3C2=O)C(=NCCO)C1 | 11.7
O=C(C1CCN(S(=O)(=O)c2ccccc2)CC1)N1CCN(c2ccccc2F)CC1 | -33.7
O=C(Nc1ccccc1C(=O)O)c1cccc(NC(=O)c2ccccc2Cl)c1 | 22.1
Cc1c(C(=O)OCC(=O)N(C)Cc2ccc(Cl)cc2)oc2ccccc12 | -10
CCCCn1c(O)c(C(C)=NC(Cc2c[nH]c3ccccc23)C(=O)OC)c(=O)[nH]c1=O (stereo not shown) | -52.1
Cc1ccc(Cl)c(NC(=O)CN(C)CC(=O)Nc2ccc(F)c(F)c2F)c1Cl | -23.8
C=CCC(c1ccccc1F)N(CCN1CCOCC1)C(=O)Nc1cccc(Cl)c1 (stereo not shown) | -34.6
N/C(=N\OC(=O)CCC1CCCC1)c1ccc(Br)cc1 | -31.6
ON1C(c2ccccc2)CC2(O)c3nonc3CCC12 (stereo not shown) | -2.85
COCCN1C=C(C(=O)OC)C(c2ccccc2Cl)C(C(=O)OC)=C1 | 8.12
COc1ccccc1NC(=O)Cn1nnc(-c2ccccc2NC(=O)c2cc3ccccc3oc2=O)n1 | 2.86
COC(=O)c1c(NC(=O)CN2C(=O)NC(CCc3ccccc3)C2=O)sc2c1CCCCC2 (stereo not shown) | 2.25
CCOc1ccccc1NC(=O)Cn1c(=O)sc2ccccc21 | -2.1
Cc1cc(C)c(OCC(=O)OCC(=O)N2CCN(C(=O)c3ccco3)CC2)c(C)c1 | -30.4
O=C(Oc1ccc([N+](=O)[O-])cc1)c1cccnc1 | -11
Cc1ccc(S(=O)(=O)N=S(CCO)CCO)cc1 | 4.93

SMILES | hERG current change (%, negative = inhibition) at 10uM [%]
Cc1ccc(Sc2cnn(-c3ccccc3)c(=O)c2Cl)cc1 | 13.8
Nc1nc(NCc2ccco2)nc(N2CCCCC2)c1[N+](=O)[O-] | -19
Cc1ccc(NNC(=O)c2cc(C(C)(C)C)nn2Cc2ccccc2)cc1 | -4.99
O=C(COC(=O)c1cccc(-n2cnnn2)c1)c1ccccc1 | -4.63
O=C(NCCS(=O)(=O)c1ccc(Br)cc1)c1ccc(Cl)cc1Cl | 0.239
COc1ccccc1N1CCN(C(=O)C2CCCCN2S(=O)(=O)c2ccc(C)cc2)CC1.Cl (stereo not shown) | -15.7
CNc1ccc(Oc2c(F)c(F)nc(F)c2F)cc1 | -0.34
CC(C)COc1ccc(C(=O)N/C(=C/c2cccc([N+](=O)[O-])c2)C(=O)O)cc1 | 15.6
O=C(NC1CCCCC1)C(c1ccncc1)N(C(=O)Cn1nnc(-c2cccs2)n1)C1CCCC1 (stereo not shown) | -39
COc1ccc(CNc2ccc3c(c2)CCC3)cc1OC | 1.81
O=C(Oc1ccc2cc(Br)ccc2c1)N1CCCCCC1 | 16.3
O=C(N/N=C/c1c(O)n(Cc2ccccc2)c(=O)[nH]c1=O)c1ccccc1O | -11.3
CCCCn1c(N)c(N(CCC(C)C)C(=O)c2cc(S(=O)(=O)N3CCOCC3)ccc2F)c(=O)[nH]c1=O | 2.05
CCCCN(C(=O)CSCC(=O)Nc1cccc(C)c1)c1c(N)n(CCCC)c(=O)[nH]c1=O | 0.54
COc1ccc(NC(=O)c2ccccc2N(Cc2ccccc2)S(C)(=O)=O)c(OC)c1 | -1.5
CN(CC(=O)NC1CCCCC1)S(=O)(=O)c1cccc2cccnc12 | -4.31
O=C(c1ccc(NS(=O)(=O)c2ccc3[nH]c(=O)[nH]c3c2)cc1)N1CCN(c2ccccc2)CC1 | 9.88
O=c1c(C=NCc2ccccc2)c(NCc2ccccc2)nc2ccccn12 | 6.54
COc1ccc(OC)c(N(CC(=O)Nc2ccccc2)S(=O)(=O)c2ccccc2)c1 | 6.01
COc1ccccc1Nc1nc(=O)[nH]nc1C | 16.7
CC(C)CC(=O)NC(=S)Nc1cc(C(=O)O)ccc1Cl | 3.01
CCn1cc(CN2CCC(n3nccc3NC(=O)c3ccccc3C)CC2)c(C)n1 | -37.9

SMILES | hERG current change (%, negative = inhibition) at 10uM [%]
O=C(/C=C/c1ccc2c(c1)OCO2)Nc1nncs1 | 9.93
O=C(CCCCl)OCc1cn(-c2ccc(Cl)cc2)nn1 | 13.3
CCc1ccc(NC(=S)/N=C(\N)Nc2nc(C)c3cc(CC)ccc3n2)cc1 | -9.74
COc1ccc(-c2nn(-c3ccccc3)cc2/C=C2/SC(=S)N(CCC(=O)O)C2=O)c(C)c1 | 13.1
CCOC(=O)c1cc2ccc(OC(=O)c3ccco3)cc2oc1=O | -8.19
O=C(CCN1C(=O)C2C3CCC(C3)C2C1=O)OCC(=O)c1ccc(Cl)cc1 (stereo not shown) | -53.2
COc1cccc(NC(=O)CNC(=O)c2ccc(OC)c(OC)c2)c1 | -0.0878
CCOc1ccccc1N1C(=O)NC(=O)C(CCc2ccncc2)(CCc2ccncc2)C1=O | -29.6
COC(=O)[C@H](C)NC(=O)Nc1cccc(C(F)(F)F)c1 | -5.83
CC(C)C(NS(=O)(=O)c1cccc2nsnc12)C(=O)NCc1ccc2c(c1)OCO2 (stereo not shown) | -18.7
Cc1ccc(C)c(NC(=O)CSc2nnc([C@@H]3CCCN3C(=O)OC(C)(C)C)o2)c1 | -2.24
COC(=O)C1=C(C)N(C)C(=S)N(C)C1c1ccc(OC)cc1 (stereo not shown) | -8.33
COc1ccc(N2CCN(CCCNC(=O)CC3Oc4ccc(C)cc4NC3=O)CC2)cc1 (stereo not shown) | -55.5
CCOc1ccc(-c2cc(C(=O)NCCCN3CCN(CC)CC3)c3ccccc3n2)cc1 | -38
NC(=O)Cn1nnc(-c2ccccc2NC(=O)c2cnccn2)n1 | 3.85
CC1CCN(C(=O)CN2C(=O)C(=O)N(C(C)C)C2=O)c2ccccc2S1 (stereo not shown) | -4.64
Cc1ccc(CNC(=O)C2CCC(=O)N(CCc3ccccc3)C2)s1 (stereo not shown) | -25.7
CC1CN(C(=O)CCC(=O)NCc2cccnc2)c2ccccc2O1 (stereo not shown) | -8.06
O=S(=O)(c1ccc(S(=O)(=O)N2CCCN(Cc3ccccc3)C2)cc1)N1CCCCCC1 | 10.6
COc1ccc(CCNC(=O)C2c3ccccc3C(=O)N2CCC(C)C)cc1OC (stereo not shown) | 10.8
Cc1cnc(SCCc2ccncc2)nc1C.Cl | 11.3
COc1ccc(NS(=O)(=O)c2ccc(NC(=S)NC(=O)CC(C)C)cc2)cc1 | 7.48

SMILES | hERG current change (%, negative = inhibition) at 10uM [%]
Cc1ccc(/C=C/c2onc(C)c2S(=O)(=O)N2CCC(C(=O)N3CCCCC3)CC2)cc1 | -9.38
CCCC1C(=O)N(Cc2ccccc2)C(=O)CC1C (stereo not shown) | 3.29
CC(=O)c1c(NCCc2ccccc2)nc(=S)n(-c2ccccc2)c1C | 7.04
NC(CO)(CO)CO.O=C(c1ccccc1)c1ccc2n1CCC2C(=O)O (stereo not shown) | -3.5
CCc1nc2ccccc2nc1N1CCN(S(=O)(=O)c2c(C)cc(Cl)cc2C)CC1 | 14.3
CCOC(=O)C(NC(=O)NCc1ccccc1OC)(OCC)C(F)(F)F (stereo not shown) | 2.09
COc1cc(C2=NOC(C(=O)Nc3ccc4c(c3)OCO4)C2)cc(OC)c1OC (stereo not shown) | 16.6
COc1ccc2nc(NC(=O)CSc3nc4cccnc4n3C)sc2c1 | 5.04
CCc1ccc(OC(=O)/C=C/c2ccco2)cc1 | 3.07
CCCn1c(=O)c2c(nc(Br)n2CCC)n(C)c1=O | -1.31
CC(C)CCNC(=O)C1CCN(Cc2cccc(OCc3ccccc3)c2)CC1.O=C(O)C(=O)O | -50.8
O=C(c1cc(-c2ccncc2)nc2ccccc12)N1CCN(S(=O)(=O)/C=C/c2ccccc2)CC1 | -66.6
COc1ccccc1N1CCN(C(=O)COc2ccc(C)cc2Br)CC1 | -17.8
S=C(Nc1ccccc1)N1CCOCCOCCN(C(=S)Nc2ccccc2)CCOCCOCC1 | -23.4
O=C(Nc1ccc(N2CCN(C(=O)c3cccs3)CC2)c(Cl)c1)c1cccnc1 | -20.6
CCCS/C(N)=N/N=C/c1ccccc1O | -6.67
CCOC(=O)CCNCC1COc2ccccc2O1.Cl (stereo not shown) | -1.63
Cn1nnnc1SCc1ccc(Cl)cc1 | 21.8
COc1ccccc1C(=O)NCCNC(=O)c1ccco1 | 17.4
